This is an account of results in the antibiotic and cytotoxicity screens of Wong et al. (2023).

In assay [1] the test system is HSkMC (human skeletal muscle cells). The experiment in a line: cytotoxicity call (relative viability < 0.9). The conditions noted are these: 10 µM.
Assay [2] deals with S. aureus RN4220. The assay can be described thus: growth inhibition call (relative growth <= 0.2). The conditions noted are these: 50 µM.

The other results are listed elsewhere or left out.

For `Cc1ccc(S(=O)(=O)Nc2ccc3c(c2)CC(=O)N([C@@H](C)CO)C[C@H](C)[C@@H](CN(C)Cc2ccc(Cl)c(Cl)c2)O3)cc1`, the cytotoxicity call in assay [1] is “active”. The growth inhibition call in assay [2] is “inactive”.

In the case of `CCOC(=O)C[n+]1ccccc1C`, in assay [1], the cytotoxicity call was “inactive”. In addition, the growth inhibition call in assay [2] was “inactive”.

On to `COc1ccc(S(=O)(=O)Nc2ccc3c(c2)C(=O)N([C@@H](C)CO)C[C@H](C)[C@H](CN(C)Cc2ccc(-c4ccccc4)cc2)O3)cc1`, for which, in assay [1], the cytotoxicity call was “inactive”. Also, in assay [2], the growth inhibition call is “inactive”.
